Data on 35 compounds can be found in PubChem BioAssay (NCI).

Structures are written as SMILES. Where “and” joins values, the source holds several entries; their conditions need not be identical. Equal values may be shown once.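 All cell lines were grown in 96-well plates and treated with compound for 48 hours. GI50 is the concentration that inhibits growth by half. TGI: concentration producing complete growth inhibition.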

In the test the test system is NCI-H322M lung. Description: NCI tumour cell line growth inhibition, 48 h.
Compound `O=c1[nH]c(=S)[nH]n1C(=S)n1[nH]c(=S)[nH]c1=O` yielded a TGI of over 100 µM.
`C=C(Br)CN(C(C)=O)C1CCCCC1` yielded a TGI of over 100 µM.
On to `O=C(Nc1cc[c]([Sb](=[O])([OH])[OH])cc1)c1ccccc1`, for which the GI50 was over 100 µM and the TGI was over 100 µM.
Regarding `C[C@@H]1N=C(c2ccc(Br)cc2)Nc2nc3ccccn3c2C1=O`, the GI50 was 23.6 µM and the TGI is over 100 µM.
In the case of `CCCCC(=O)NC1(c2cc3ccccc3s2)CCCCC1`, the TGI was over 100 µM.
On to `Cc1ccc(SCC(CF)OCn2cc(F)c(=O)[nH]c2=O)cc1` (centres undefined), for which the TGI was over 100 µM.
On the same count and under the same terms, the result for `O=c1ccnc2c1ccc1[nH]cccc12` reads over 100 µM.
As for `O=C(C[n+]1ccccc1)N=N/C(C(=O)Nc1c(Cl)c(O)c2ccccc2c1O)=C1/C(=O)Oc2cc(O)ccc2C1=O`, the TGI was over 100 µM.
`COC(=O)C12C(=O)O[C@H](C)C1(O)C(C)C(=O)N2C` (some centres undefined) came in with a TGI of over 100 µM.
On the same count and under the same terms, as for `CCOC(=O)NC(=O)c1cn(CCCOC(=O)CCCCCCCCCCC(=O)OCCCn2cc(C(=O)NC(=O)OCC)c(=O)n(C)c2=O)c(=O)n(C)c1=O`, the figure is over 100 µM.
Regarding `O=P([O-])(O)OP(=O)([O-])O.[NH-][C@@H]1CCCC[C@H]1[NH-].[Pt+4]`, the GI50 is 59.5 µM and 25.2 µM; the TGI is over 100 µM.
With `CC(C)C1CCC/C=C/C=C/C=C/C=C/C(OC2OC(C)C(O)C(N)C2O)CC2OC(O)(CC(O)CC(O)C(O)CCC(=O)O1)CC(O)C2C(=O)O` (centres undefined), the TGI was over 52.5 µM.
In turn, `Cc1cc(NCCCCCCCCCC[n+]2c(C)cc(N)c3ccccc32)c2ccccc2n1` displayed a TGI of 18.4 µM.
Still for that read-out and setting: the result for `C=CCC(C(=O)O)c1ccccc1` (centres undefined) reads over 100 µM.
Turning to `COc1cc2cc(C(=O)Nc3cc(N)c4ccccc4c3CCCl)[nH]c2c(OC)c1OC`, the GI50 was 0.124 µM and the TGI was found to be 3.68 µM.
With `c1ccc(Nc2nnc(Cn3ccc4ccccc43)s2)cc1`, the TGI is over 100 µM.
Consider `CC(=O)NC1C(O)C(O)C(CO)OC1n1ncc(=O)[nH]c1=O` (centres undefined), for which the TGI is over 100 µM.
Take `O=C1CCC2CCC1C2` (centres undefined): the TGI was over 100 µM.
As to `O=CN1N=C(c2ccc(Cl)cc2)CC1c1cccc(Nc2ccnc3cc(Cl)ccc23)c1` (centres undefined), the GI50 is 5.52 µM and the TGI was over 100 µM.
For the compound `Cc1cc(N2CCN(c3ccnc4cc(Cl)ccc34)CC2)nc(NC2CCCCC2)n1`, the GI50 is 4.08 µM and the TGI worked out at 16 µM.
In turn, `O=[N+]([O-])c1ccc(Nc2nc3ccccc3s2)cc1` yielded a TGI of over 100 µM.
The compound `O=c1oc2ccccc2nc1/C=C(\O)c1ccc([N+](=O)[O-])cc1` gave a TGI of over 100 µM.
Still for that read-out and setting: as for `COc1cc(C2C3=C(COC3=O)Oc3cc4c(cc32)OCO4)ccc1OC(C)=O` (centres undefined), the figure is over 100 µM.
The compound `O=[N+]([O-])c1ccc2[nH]ncc2c1Cl` returned a TGI of 42.9 µM.
For `CCOP(=O)(OCC)c1ccc(=O)[nH]c1-c1cccs1`, the TGI is over 100 µM.
`O=C(O)c1ccccc1C(=O)Nn1cnnc1` returned a TGI of over 100 µM.
Compound `CCCn1c(SCC)c2cc3cc4ccccc4cc3cc2c1-c1nc(F)nc(F)n1` showed a TGI of over 100 µM.
Turning to `CC1=NN(C(=O)c2ccccc2O)C(=O)/C1=C/c1ccccc1O`, the TGI is over 70.6 µM.
For the compound `CC(C)CNc1nc(-c2ccccc2)nc2ccccc12`, the GI50 was 16 µM and the TGI amounted to 29.9 µM.
For the compound `Cn1c(NS(=O)(=O)c2ccccc2)nc2ccccc21`, the TGI was over 100 µM.
With `O=C([CH-]C(=O)c1ccccc1)c1ccccc1.O=C([CH-]C(=O)c1ccccc1)c1ccccc1.O=C([CH-]C(=O)c1ccccc1)c1ccccc1.[OH3+].[Y+3]`, the GI50 is 4.25 µM and the TGI is 39.9 µM.
Compound `C[C@]12CC[C@H](OCCC#N)CC1=CC[C@@H]1C2CC[C@]2(C)/C(=N/OCCC#N)CCC12` (some centres undefined) displayed a TGI of over 100 µM.
In the case of `CC1=C(C(=O)NCCc2ccccc2)CC(C(=O)NCCc2ccccc2)=C(C)N1`, the TGI is over 100 µM.
Consider `c1cc(OCCN2CCCCC2)ccc1CNc1ccc2nc(CCC3CCCCC3)[nH]c2c1`, for which the GI50 was 2.87 µM and the TGI came out at 10.2 µM.
With `COC(=O)C12CC3CC(C1)CC(C(=O)OC)(C3)C2`, the TGI is over 100 µM.
